# Measured values as given in PubChem BioAssay AID2147 (National Center for Advancing Translational Sciences (NCATS), 2009).
# Where “and” joins values, the source holds several entries; their conditions need not be identical. Equal values may be shown once. About 3,600 (1.6%) of roughly 230,000 compounds were called active. Inconclusive results, whose numbers are uncertain, are shown with a selection of clear calls. Calls come from the whole dose curve; as a rule, active = well fitted inhibition curve with a large enough effect (not every such curve was filed as active); inconclusive = small, poorly fitted or top-dose-only effect, or another doubt; inactive = no such curve, though single readings can be large or run the other way. A potency beside an inconclusive call is a rough fit, not a confirmed value.
# Target: Lysine-specific demethylase 4E (Homo sapiens) (UniProt B2RXH2)
# Sequence of UniProt B2RXH2 (B2RXH2 whole entry, looked up, the tested form may be a part): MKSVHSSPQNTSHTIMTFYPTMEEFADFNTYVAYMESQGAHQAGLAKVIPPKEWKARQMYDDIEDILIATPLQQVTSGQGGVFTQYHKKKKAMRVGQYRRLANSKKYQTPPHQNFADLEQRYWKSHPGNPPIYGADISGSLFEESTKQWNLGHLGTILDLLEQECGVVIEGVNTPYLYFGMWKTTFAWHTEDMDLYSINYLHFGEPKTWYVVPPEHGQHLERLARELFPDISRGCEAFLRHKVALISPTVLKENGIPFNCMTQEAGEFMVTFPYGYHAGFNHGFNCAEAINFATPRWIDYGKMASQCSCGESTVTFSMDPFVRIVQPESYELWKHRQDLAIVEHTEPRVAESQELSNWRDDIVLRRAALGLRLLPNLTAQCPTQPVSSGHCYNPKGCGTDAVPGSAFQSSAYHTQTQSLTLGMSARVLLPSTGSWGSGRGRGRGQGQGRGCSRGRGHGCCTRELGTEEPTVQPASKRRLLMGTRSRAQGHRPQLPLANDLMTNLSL
# Assay: qHTS Assay for Inhibitors of Human Jumonji Domain Containing 2E (JMJD2E)
# Details: JMJD2E catalytic domain, FDH-coupled NADH fluorescence (FDH is formaldehyde dehydrogenase); series mostly up to 57.1 µM
# Note: nearly all actives have a fitted effect of over 50% in size.
# Potency is the fitted concentration of half-maximal effect; tags give direction and shape of the fitted curve.
row,Compound,Potency
1,Cc1c(CN2CCc3c([nH]c4ccccc34)C2CC(C)C)cnn1C (stereo not drawn),"inconclusive: 28.2 µM [inhibitor, single point]"
2,Cc1ccc(N2C(=O)C3C(C2=O)C(C(=O)c2ccc(Cl)cc2)N2CCCC32)cc1 (stereo not drawn),"inconclusive: 39.8 µM [inhibitor, single point]"
3,Cc1c(=O)n(OCc2ccccn2)c2ccccc2[n+]1[O-],"inconclusive: 20 µM [inhibitor, partial curve]"
4,COc1ccc(C(=O)Nc2ccc(C3=NNC(=O)CC3C)cc2NC(=O)c2ccc(OC)cc2)cc1 (stereo not drawn),"inconclusive: 31.6 µM [inhibitor, single point]"
5,NC(=NCc1ccccc1)NC(=O)c1nc(Cl)c(N)nc1N,"inconclusive: 12.6 µM [inhibitor, partial curve] and inconclusive: 28.2 µM [inhibitor, partial curve] and inconclusive: 25.1 µM [inhibitor, partial curve]"
6,CCN1CCCC1CNC(=O)c1c(O)c2c([nH]c1=O)CCCC2 (stereo not drawn),"inconclusive: 39.8 µM [inhibitor, single point]"
7,N#Cc1c(Cl)nsc1NN,inactive
8,CCOc1cc(CNCCc2ccc(S(N)(=O)=O)cc2)ccc1OCc1ccc(Cl)cc1,inactive
9,CC1(CC(=O)N/N=C/c2ccc(-c3ccc(C(=O)O)cc3)o2)OCCO1,"inconclusive: 25.1 µM [inhibitor, partial curve]"
10,O=C1CN=C(Nc2ccccc2Cl)N1Cc1ccc2c(c1)OCO2,inactive
11,Fc1ccccc1-c1n[nH]c(=S)n1/N=C/c1c[nH]c2ccccc12,inactive
12,N#C/C(=C\c1cccc(Cl)c1)C(=O)c1ccccc1,"inconclusive: 28.2 µM [inhibitor, partial curve, poor fit]"
13,CCN1CCCC(Sc2nc3c([nH]2)c(=S)n(C)c(=O)n3C)C1 (stereo not drawn),"inconclusive: 31.6 µM [inhibitor, partial curve]"
14,Cc1ccccc1N(C)S(=O)(=O)c1ccc2[nH]cc(C(=O)NCC3CCCO3)c(=O)c2c1 (stereo not drawn),"inconclusive: 28.2 µM [inhibitor, single point]"
15,CCOC(=O)c1cc2cc([N+](=O)[O-])ccc2oc1=O,inactive
16,CC1CC(C)CN(C(=O)CSc2nc(Cc3cccs3)nc3ccccc23)C1 (stereo not drawn),"inconclusive: 39.8 µM [inhibitor, single point]"
17,Cc1ccc(NC(=O)NCC2CCN(Cc3cccc(Cl)c3)CC2)cc1Cl,inactive
18,Cc1ccc(S(=O)(=O)NCCCOC(=O)Nc2ccncc2)cc1,inactive
19,Cc1cccc(-n2c(N)c(C(=O)NCCN3CCOCC3)c3nc4ccccc4nc32)c1,"inconclusive: 14.1 µM [inhibitor, partial curve]"
20,O=C(Nc1ncc([N+](=O)[O-])s1)c1cccc([N+](=O)[O-])c1,inactive
21,CCC(C)Nc1nc(C)nc2c1oc1ccccc12 (stereo not drawn),inactive
22,CCN1C(=O)c2cccc3c(S(=O)(=O)NCc4ccccn4)ccc1c23,"inconclusive: 28.2 µM [inhibitor, partial curve]"
23,c1cc2c(cnc3cscc32)s1,"inconclusive: 31.6 µM [inhibitor, partial curve]"
24,COC(=O)c1[nH]c2cccc(OC)c2c1NC(=O)CN1CC(C)OC(C)C1 (stereo not drawn),"inconclusive: 28.2 µM [inhibitor, partial curve]"
25,Nc1ccccc1-n1cccc1,"inconclusive: 35.5 µM [inhibitor, single point]"

row,Compound,Potency
1,C=CCn1cc(/C=N\NC(=O)c2cc3c(ccc4ccccc43)o2)c2ccccc21,"inconclusive: 31.6 µM [inhibitor, partial curve]"
2,N#Cc1cnc2cc(-c3ccccc3)nn2c1N,"inconclusive: 39.8 µM [inhibitor, single point]"
3,Fc1ccc(-c2csc(-c3ccccn3)n2)cc1F,"inconclusive: 2.82 µM [inhibitor, full curve, poor fit]"
4,O=C(O)c1cc(O)c2c(c1)C(=O)c1cccc(O)c1C2=O,active: 14.1 µM and active: 28.2 µM
5,O=C(N/N=C/c1ccccc1C(=O)O)c1ccccc1Br,inactive
6,Oc1nc(-c2ccc(Cl)cc2)n2ccncc12,"inconclusive: 39.8 µM [inhibitor, single point]"
7,CN1C2C=C3C(C#N)=C(N)C(C#N)(C#N)[C@@H](c4cccs4)C3C1CC2 (stereo partly drawn),"inconclusive: 6.31 µM [inhibitor, single point]"
8,COc1ccc(-n2cc(CNC3CCOCC3)c(-c3cccc(F)c3)n2)cc1,"inconclusive: 35.5 µM [inhibitor, partial curve]"
9,COc1cccc(/C=N/NC(=S)Nc2cccnc2)c1,inactive
10,O=c1[nH]c2ccc(S(=O)(=O)N3CCCCC3)cc2[nH]c1=O,"inconclusive: 39.8 µM [inhibitor, single point]"
11,CCc1nnc(NCC(=O)N2CCc3ccccc32)s1,inactive
12,O=C1CC(N2CCC(O)CC2)C(=O)N1c1ccc(Br)cc1 (stereo not drawn),inactive
13,COc1ccccc1C(=O)Nc1cc2cc(Br)ccc2oc1=O,"inconclusive: 1.26 µM [inhibitor, full curve, poor fit]"
14,Cc1onc(-c2ccccc2Cl)c1C(=O)NC(=S)Nc1ccccc1F,inactive
15,O=C1CC(C(=O)Nc2ccc(Cl)cc2[N+](=O)[O-])C2(CCCCC2)O1 (stereo not drawn),inactive
16,CCc1ccc(-n2c(SCC(=O)N3Cc4ccccc4CC3C(=O)O)nnc2-c2ccncc2)cc1 (stereo not drawn),"inconclusive: 31.6 µM [inhibitor, single point]"
17,COc1ccccc1-n1cnnc1SCC(=O)Nc1cccnc1Cl,inactive
18,O=C1CSC(=S)N1/N=C/c1ccc(O)c(O)c1O,active: 2.24 µM
19,C=CCNc1ncnc2sc(SC)nc12,inactive
20,O=C(Cc1cnc2ncnn2c1)N1CCc2c([nH]c3ccccc23)C1c1ccccc1F (stereo not drawn),inactive
21,COC(=O)c1c(/N=C/N(C)C)sc2c1CCN(c1ncc(C(F)(F)F)cc1Cl)C2,"inconclusive: 35.5 µM [inhibitor, single point]"
22,Cc1cc(N)n2ncc(-c3ccc(Cl)cc3)c2n1,"inconclusive: 25.1 µM [inhibitor, partial curve]"
23,COc1cc2cc(CN(CCCO)S(=O)(=O)c3ccccc3)c(=O)[nH]c2cc1OC,"inconclusive: 31.6 µM [inhibitor, partial curve]"
24,COC(=O)c1ccc(NC(=O)C2CCN(C(=O)c3cc(OC)c(OC)c(OC)c3)CC2)cc1,inactive
25,COc1ccc(/C=C/C(=O)c2ccoc2)cc1,"inconclusive: 31.6 µM [inhibitor, single point]"

row,Compound,Potency
1,O=C(Cc1ccc(Cl)cc1)Oc1cccc2cccnc12,inactive
2,CCOC(=O)N1CCN(c2ccc(Cl)cc2)CC1,inactive
3,C=CCNC(=S)Nc1ccc2cn[nH]c2c1,"inconclusive: 35.5 µM [inhibitor, single point]"
4,CCCc1sc(N/N=C/c2ccccn2)nc1-c1ccc(F)cc1,inactive
5,O=C(CCN1C(=O)c2ccccc2C1=O)C1=NN[C@@H]2C(=O)N(c3ccc4c(c3)OCO4)C(=O)[C@H]12,inactive
6,CCOC(=O)c1[nH]nc(-c2cc(CC)c(O)cc2O)c1-c1cscn1,inactive
7,CCCN1CCN(CCCNC(=O)c2cc3c(=O)[nH]c4ccc(C)cc4c3s2)CC1,"inconclusive: 31.6 µM [inhibitor, partial curve]"
8,CCCCCCOC(=O)CCc1c(C)nc(N)[nH]c1=O,inactive
9,Cc1csc2ncc(C(=O)N(Cc3ccccc3)c3ccccn3)c(=O)n12,"inconclusive: 39.8 µM [inhibitor, single point]"
10,Cc1cc(C)nc(N2CCN(C(=O)CCC(=O)Nc3nnc(CC(C)C)s3)CC2)n1,"inconclusive: 39.8 µM [inhibitor, single point]"
11,O=C(NCc1cccnc1)c1cccn2c(=O)c3sccc3nc12,"inconclusive: 4.47 µM [inhibitor, single point]"
12,CCOC(=O)CSC1=C(C#N)C(c2ccc(F)cc2)C(C(C)=O)=C(C)N1 (stereo not drawn),"inconclusive: 39.8 µM [inhibitor, single point]"
13,COc1ccc2[nH]c(C)c(C(=O)CN(C)CC3OCCO3)c2c1,"inconclusive: 28.2 µM [inhibitor, single point]"
14,Cc1ccc(OCc2nnc(SCC(=O)O)n2N)cc1,inactive
15,CC1(C)CC(=O)C(CC(=O)Nc2ccc(S(N)(=O)=O)cc2)=C(O)C1,inactive
16,CN1CCC2(CC1)N=C(c1ccc(F)cc1)C(=S)N2C(=O)c1ccc(C(C)(C)C)cc1,"inconclusive: 39.8 µM [inhibitor, single point]"
17,CNC(=O)/C(C#N)=C/c1c(N(Cc2ccccc2)Cc2ccccc2)nc2ccccn2c1=O,"inconclusive: 2.82 µM [inhibitor, full curve]"
18,CC(=O)c1ccc(NC(=S)NNC(=O)c2ccncc2)cc1,"inconclusive: 39.8 µM [inhibitor, single point]"
19,CC(C)CCn1c(CN2CCOCC2)nc2c1c(=O)n(C)c(=O)n2C,inactive
20,NS(=O)(=O)c1ccc(N2N=C(c3ccccc3)CC2c2ccccc2)cc1 (stereo not drawn),"inconclusive: 28.2 µM [inhibitor, partial curve]"
21,O=c1c2ccccc2nc(-c2cccs2)n1-c1cccc2ccccc12,"inconclusive: 35.5 µM [inhibitor, single point]"
22,CC1=CC(=Nc2c(C)n(C)n(-c3ccccc3)c2=O)C=CC1=O,active: 1.78 µM
23,[N-]=C=C1C(=S)NC(=O)[C@H]([n+]2ccccc2)[C@H]1c1ccc(Cl)cc1,"inconclusive: 28.2 µM [inhibitor, single point]"
